From ChEMBL document CHEMBL4888484, “Replenishing the malaria drug discovery pipeline: Screening and hit evaluation of the MMV Hit Generation Library 1 (HGL1) against asexual blood stage Plasmodium falciparum ,using a nano luciferase reporter read-out” (2022)
Among all 4,800 compounds or so, about 410 (8.5%) showed an effect of 50% or more. This is one part of the list.

The molecules below were run on Plasmodium falciparum (assay: Confirmatory screen in NF54 pLDH assay, in single point, at 2uM, 72h). Conditions: timepoint 72 hour.
Type: functional, Erythrocyte

| Compound | % Inhibition [%] |
| --- | --- |
| CCOC(=O)C1CCN(C(=O)Nc2ccc(NC(=O)N3CCC(C(=O)OCC)CC3)cc2)CC1 | 4 |
| COc1ccc(-c2nnc(COc3ccc(-c4ccccc4)cc3)s2)cc1 | -10 |
| O=C(OCC(=O)N1CCCc2ccccc21)c1nccc2ccccc12 | 7 |
| CC[C@H]1CCCCN1c1ccc2nnnn2n1 | 9 |
| CCN1CCN(C2CCN(c3ncc(F)c(OC)n3)CC2)CC1 | 50 |
| Fc1ccc(Nc2nc3c(s2)CCCC3)cc1 | -18 |
| Cc1coc(-c2cc(NC(=O)N(CCO)CC(F)F)ccc2C)n1 | 3 |
| CC(C)c1cc(C(C)C)c(S(=O)(=O)N[C@@H](Cc2ccccc2)c2ccc(-c3ccccc3)cc2)c(C(C)C)c1 | -14 |
| N#CC1(C#N)C(c2ccc(Cl)cc2)C1(C#N)C#N | 19 |
| Cc1ccc(S(=O)(=O)NCC(=O)N2CCC[C@H]2c2ccc3c(c2)OCCCO3)cc1C | 1 |
| COc1ccc(C(=O)C[n+]2nc(CNc3ccc(Br)cc3)n3c2CCCCC3)cc1 | 82 |
| O=C1C[C@H](C(=O)NC2(c3cc(C(F)(F)F)ccc3Cl)CC2)CN1 | -11 |
| COc1ccc(Nc2nc(C(C(F)(F)F)(C(F)(F)F)C(F)(F)F)nc(C(C(F)(F)F)(C(F)(F)F)C(F)(F)F)n2)cc1 | 11 |
| Cc1oc(C)c(C(=O)N2CCc3cnccc32)c1C | -13 |
| COc1cccc(Oc2nc(N3CCN(C)CC3)nc3c2CN(C(=O)Nc2ccccc2)CC3)c1 | 10 |
| Cc1ncoc1C(=O)N1CC(F)(F)C[C@H]1Cn1cc(C(=O)N2CCOCC2)nn1 | 4 |
| CCOCC(=O)Nc1ccc(C(C)=O)c(Cl)c1 | -7 |
| Cc1c(S(=O)(=O)N2CC3CN(c4ccccc4)CC3C2)cnn1C (configuration not stated) | 10 |
| O=C(Nc1cccc2cccnc12)N1CCOCC1CC(O)c1cccs1 (configuration not stated) | 10 |
| Cc1sc(NC(=O)c2ccccc2Cl)nc1-c1ccc2c(c1)NC(=O)[C@H](C)O2 | 12 |
| COC(=O)c1cc(Cl)c(Cl)cc1N | 1 |
| O=C1CCc2cc(NC(=O)[C@@H]3Cc4ccccc4C(=O)O3)ccc2N1 | 14 |
| COc1cccc2c1OCC(=O)N([C@@H](C)c1ccccc1)C2 | -12 |
| O=C(Cc1cccs1)Nc1ncc(Cc2ccccc2)s1 | 7 |
| CC1(C)c2ccccc2CCN1C(=O)CCc1ncc(-c2ccccc2)o1 | 8 |
| COc1cc2c(cc1OC)CN(C(=O)c1cccc(N3C(=O)C(C)(C)CS3(=O)=O)c1)CC2 | 3 |

| Compound | % Inhibition [%] |
| --- | --- |
| Cc1c(C)n(CCc2c[nH]c3ccccc23)ccc1=O | 11 |
| O=C(Cc1ccc(N(Cc2cccc(F)c2)C(=O)C2CCCC2)cc1)NCCN1CCCCC1 | 43 |
| O=C(NCCN1CCCCC1)[C@H]1CCCN(c2nc3cccnc3n(Cc3ccccc3)c2=O)C1 | -4 |
| Clc1ccc(COc2ccc(Cl)cc2CNCCCn2ccnc2)c(Cl)c1 | 100 |
| Cc1ccccc1CNC(=O)c1ccccc1NC(=O)C1CC=CCC1C(=O)O (configuration not stated) | 7 |
| COCCN(CC1CN(Cc2ccccn2)CC1c1cccc(F)c1)C(=O)COC (configuration not stated) | -5 |
| Cn1ccnc1[C@@H]1CCCN1Cc1nccn1Cc1ccccc1 | 43 |
| CCNC(=O)C[C@H]1CCCCN1C(=O)C1CCN(Cc2csc(C)n2)CC1 | 14 |
| COc1ccc(CCNC(=O)c2c(C)noc2-c2ccncc2)cc1OC | 9 |
| CCC(C)(C)N(C)C(=O)c1ccccc1Cl | -1 |
| O=C1CCCC1C(c1ccccc1)N(C1=NS(=O)(=O)c2ccccc21)c1ccccc1 (configuration not stated) | -19 |
| Cc1cc2occ(CC(=O)N[C@@H](Cc3c[nH]c4cc(F)ccc34)C(=O)O)c2cc1C | 7 |
| c1csc(CNC2CCCCCCC2)c1 | -2 |
| CC1(C)Oc2ccc(NC(=O)c3ccco3)cc2NC1=O | 12 |
| CCN1CC[C@H](NCc2ccc(OCCN3CCOCC3)c(Cl)c2)C1=O | 6 |
| CCN(CC)C(=O)N1CCC[C@@H]1CCc1ncc(C)n1C(C)C | 12 |
| COc1ccc2cc3n(c2c1)C[C@@](C)(C(=O)NC1CCCC1)N(Cc1ccc(F)cc1)C3=O | 13 |
| C[C@H]1CNCCN1C(=O)c1coc2ccccc12 | 8 |
| c1ccc(-c2nnc3nc(N4CCOCC4)nc(N4CCOCC4)n23)cc1 | 6 |
| N#Cc1cc(O)c(-c2c(O)n[nH]c2-c2ccccc2)cc1C#N | 10 |
| COc1ccccc1N(Cc1ccccc1)C1=NC(=[N+](Cc2ccccc2)c2ccccc2OC)c2ccccc21 | 67 |
| Cc1cc(C)c(S(=O)(=O)Cc2ccccc2)c(O)n1 | 12 |
| O=C(Nc1nn(Cc2ccccc2)cc1Cl)c1cc(-c2ccc(OC(F)F)cc2)[nH]n1 | -12 |
| COc1ccccc1NC(=O)c1cnn2c3c(cnc12)CCCCC3 | 3 |
| O=C(Cc1nnc2ccc(C(=O)Nc3ccccc3)cn12)Nc1ccc(F)cc1 | 8 |
| O=C(NCc1ccccn1)[C@H]1CN(S(=O)(=O)c2cccnc2)CC12CCCCC2 | 15 |

| Compound | % Inhibition [%] |
| --- | --- |
| COC(=O)[C@H](NC(=O)CN1CCOc2ccc(Cl)cc21)c1ccc(O)cc1 | 7 |
| Cc1cc(C)cc(CON=C(N)CCO)c1 | -17 |
| CCN1C(=O)C(=O)N(CN2CCc3ccccc3C2)C1=O | 7 |
| Cc1cc(CN2C(=O)N[C@@]3(CCCCc4ccccc43)C2=O)no1 | 6 |
| CN1CCN(c2c(F)cc3c(=O)c(C(=O)O)cn(-c4ccc(OC5CC6CCC5(C)C6(C)C)c(F)c4)c3c2F)CC1 (configuration not stated) | -4 |
| O=C(c1ccc(O)cc1)C1CCN(C[C@H](O)C(F)(F)F)CC1 | 9 |
| Cc1nn(C)c(Cl)c1CNCc1ccc(N2CCCCC2)nc1 | -13 |
| COCCCNC(=O)C(=O)Nc1ccnn1C1CCCCC1 | 7 |
| CN=C(NCC(=O)N(C)CC(F)(F)F)NCc1ccc(C)cc1 | 11 |
| Cc1cc(N)cc(Br)c1N | -12 |
| COc1ccc(C(NC(=O)NCC2CCCO2)C(Cl)(Cl)Cl)cc1F (configuration not stated) | -1 |
| COc1cccc(CNCCN2CCOCC2)c1OCc1ccc(Cl)cc1Cl | 11 |
| CC(C)CC1NC2(C(=O)N(Cc3ccccc3F)c3ccccc32)C2C(=O)N(c3cccc(Cl)c3)C(=O)C12 (configuration not stated) | -2 |
| NC(=O)c1c(Cl)cccc1NCc1noc(Cc2ccccc2)n1 | -11 |
| O=C(CCOCC(F)(F)F)Nc1ccc2c(c1)C(=O)NC2 | -5 |
| C[C@H](Nc1cccc2c1CCO2)c1cccnc1 | 19 |
| Cc1nn(C(C)(C)C)c2nc(C3CC3)cc(C(=O)N(C)c3ccccc3)c12 | 87 |
| COc1cccc(C(=O)N2CCN(c3cc(N4CCOCC4)nc(C)n3)CC2)c1 | 4 |
| Cn1cc(CNC(=O)NCC2(Cc3ccccc3)CCC2)cn1 | -3 |
| N[C@H]1COc2ccc(Br)cc2C1=O | -9 |
| COc1ccc(-c2nccn3cc(C(=O)NCCc4ccncc4)nc23)cc1 | 5 |
| CC(C)N(C)CCOC(=O)c1ccccc1Cl | 11 |
| CC1CCC2C(CCC(C)N2C(=O)c2cc3nc4c(c(C(F)(F)F)n3n2)CCc2ccccc2-4)C1 (configuration not stated) | 1 |
| CS(=O)(=O)Nc1ccc(OC(=O)C2C3CCCCC32)cc1 (configuration not stated) | 11 |
| CC1(C)C(NCC(O)COc2ccc(F)c(F)c2)[C@@H]2CCC[C@@H]21 (some centres not stated) | 75 |
| O=C(CCn1c(=O)[nH]c2ccsc2c1=O)NCc1ccccc1 | 18 |

| Compound | % Inhibition [%] |
| --- | --- |
| CC(C)C[C@]1(C)NC(=O)N(Cc2noc(-c3cccs3)n2)C1=O | -4 |
| O=C(c1cn(CC2(O)CCN(Cc3ccccc3)CC2)nn1)N1CCCc2ccccc21 | 14 |
| O=C(NC1CC1)c1nc(C(=O)N2CCN(c3ccccn3)CC2)cs1 | 0 |
| O=c1c2ccccc2nc2cc(-c3ccc(O)cc3)c(-c3ccccc3)nn12 | 28 |
| O=C(CNc1ccc2ccccc2c1)Nc1ccc2c(c1)OCCCO2 | 9 |
| CCCCS(=O)(=O)N1CC[C@H](CC(=O)NCc2ccccc2)C1 | -15 |
| Cc1nc2c(Oc3ccccc3)cccc2c2c1CCN2c1ccc(OC(F)(F)F)cc1 | -20 |
| O=C(Nc1cccc2ccccc12)c1nn[nH]c1NS(=O)(=O)c1ccccc1 | -5 |
| O=C1CN(C(=O)c2ccc3noc(-c4ccccc4)c3c2)CCN1 | 1 |
| O=C1CNC(=O)N1Cc1ncoc1-c1ccccc1 | -21 |
| O=C1O[C@H](C(=O)Nc2ccc(S(=O)(=O)N3CCCC3)cc2)Cc2ccccc21 | -10 |
| N#CCc1ncc(CCN2C(=O)c3ccccc3C2=O)s1 | 7 |
| C[C@H]1CN(Cc2cc3c(cc2Br)OCO3)CCN1S(C)(=O)=O | -6 |
| COc1nc2ncnc(OC)c2nc1C#N | 12 |
| c1cc(-c2nnn(CN3CCCCC3)n2)ccn1 | -5 |
| CCS(=O)(=O)N1CCC(N2C(=O)[C@@H]3CC[C@@H](c4ccccc4)N3C2=O)CC1 | -9 |
| Cc1nn(CCc2nnc(-c3ccc4c(c3)OCO4)o2)c(C)c1Cl | 11 |
| Cc1cc(C)n(-c2nnc(-c3ccccc3)c(-c3ccccc3)n2)n1 | 10 |
| COc1c2c(cc3c1[C@@H](C#CCOc1ccccc1)[N+](C)(C)CC3)OCO2 | 68 |
| CC(C)(C)c1cnc(CN2CCCN(C(N)=O)CC2)s1 | 0 |
| Cc1nnc2ccc(S(=O)(=O)N(Cc3ccccc3F)c3cc(F)cc(F)c3)cn12 | 4 |
| c1ccc(-c2cc3c(N4CCC4)ncnc3s2)cc1 | 6 |
| COc1cccc(-c2nsc(C(=O)NCc3cccnc3)c2N)c1 | 8 |
| CC(C)[C@@H](C(=O)Nc1ccc2c(c1)OCO2)N(Cc1cccnc1)C(=O)Cn1nnc2ccccc21 | -2 |
